This is one part of the list.
target: no compound (DMSO); assay: log2 fold change of degron read counts, EGFP-low vs EGFP+ sorted cells; higher = lower degron-EGFP level without compound (poor expression or instability); details: compound: DMSO control; 18 h
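Note: jurkat cells carrying a lentiviral library of mutant zinc finger degrons fused to EGFP plus mCherry, mCherry+ cells FACS sorted, degron abundance counted by next-generation sequencing.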

Sequence	log2 fold change of degron read counts
FQCNQCGHWFTQKGNLLRHIKL	-0.282
FGCPVCGAMFTQKGNLLRHIKL	-0.133
FNCNVCGAKFTQKGNLLRHIKL	-0.613
FHCNQCGRKFTQKGNLLRHIKL	-1.06
FNCDQCGAQFTQKGNLLRHIKL	-1.55
FTCEICGRVFTQKGNLLRHIKL	-0.463
LMCPICGFPCTQKGNLLRHIKL	1.68
FECNQCGRRFTQKGNLLRHIKL	-1.94
FCCPVCGARFTQKGNLLRHIKL	-0.017
FDCEICGRSFTQKGNLLRHIKL	-2.25
FFCNVCGAKFTQKGNLLRHIKL	-0.792
FNCEICGALFTQKGNLLRHIKL	-1.29
FSCNVCGAQFTQKGNLLRHIKL	-0.333
FLCPICGAGFTQKGNLLRHIKL	0.284
FKCEQCGAYFTQKGNLLRHIKL	-2.35
FECPVCGAGFTQKGNLLRHIKL	-0.774
FWCEVCGAIFTQKGNLLRHIKL	0.79
FMCEICGAMFTQKGNLLRHIKL	-1.8
FFCNVCGACFTQKGNLLRHIKL	0.484
FMCNVCGAMFTQKGNLLRHIKL	0.432
LRCNQCGFHCTQKGNLLRHIKL	1.34
LACEICGFRCTQKGNLLRHIKL	-0.0987
FNCEQCGAFFTQKGNLLRHIKL	-1.2
FLCNQCGAKFTQKGNLLRHIKL	-0.654
FLCEVCGANFTQKGNLLRHIKL	-1.28

Sequence	log2 fold change of degron read counts
FNCNQCGRYFTQKGNLLRHIKL	1.27
FECNQCGARFTQKGNLLRHIKL	-2.15
FGCDICGAFFTQKGNLLRHIKL	-0.554
FTCEVCGAHFTQKGNLLRHIKL	-1.44
FYCNQCGHSFTQKGNLLRHIKL	-0.429
FECPVCGAQFTQKGNLLRHIKL	-0.954
FWCPQCGAYFTQKGNLLRHIKL	0.829
FLCPVCGAPFTQKGNLLRHIKL	0.601
FACPQCGAGFTQKGNLLRHIKL	-0.567
FACEVCGAGFTQKGNLLRHIKL	-1.53
FYCDICGAGFTQKGNLLRHIKL	-0.733
FCCPICGHRFTQKGNLLRHIKL	0.16
FQCNICGAPFTQKGNLLRHIKL	0.118
LRCEICGFMCTQKGNLLRHIKL	0.736
LTCNQCGFCCTQKGNLLRHIKL	0.612
FMCSVCGHCFTQKGNLLRHIKL	-0.0785
FLCPICGAFFTQKGNLLRHIKL	0.873
FGCNQCGAEFTQKGNLLRHIKL	-0.28
FLCEICGAWFTQKGNLLRHIKL	-0.558
FRCDICGAFFTQKGNLLRHIKL	-1.07
FVCNQCGRYFTQKGNLLRHIKL	0.229
LLCEICGFTCTQKGNLLRHIKL	-0.0491
FLCPICGHPFTQKGNLLRHIKL	-0.14
FSCDQCGAIFTQKGNLLRHIKL	-0.399
FSCPICGHIFTQKGNLLRHIKL	0.243

From the supplement of paper PMC12645437, “Orthogonal IMiD-Degron Pairs Induce Selective Protein Degradation in Cells” (ACS Chemical Biology, 2025)
